Measured values taken from the supplement of paper PMC12067230.
Single values of this set are uncertain.

Assay: amyloid nucleation score relative to library mode (yeast Sup35 reporter selection) (log enrichment difference); higher = more amyloid nucleation; sequences are the first 22 residues of the Bri2 peptide extended by up to 12 random residues
Conditions: random library (experiment): 1;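 active = nucleation score significantly above 0 at FDR 0.05; inactive = not significantly above 0 or absent from output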
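Note: [psi-pin-] Saccharomyces cerevisiae expressing SupN fusions, induced by 100 µM Cu2SO4, selected 7 d at 30 °C without adenine and uracil, scored by deep sequencing of output versus input.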

| Sequence | amyloid nucleation score |
| --- | --- |
| EASNCFAIRHFENKFAVETLICEVQWGVASTPAR | inactive |
| EASNCFAIRHFENKFAVETLICEVR | inactive |
| EASNCFAIRHFENKFAVETLICEVSCGRFCYRDR | inactive |
| EASNCFAIRHFENKFAVETLICEVSLMWLVLCRS | inactive |
| EASNCFAIRHFENKFAVETLICEVVEGRIGVPVE | inactive |
| EASNCFAIRHFENKFAVETLICEVVGYNCVDLGR | inactive |
| EASNCFAIRHFENKFAVETLICEW | inactive |
| EASNCFAIRHFENKFAVETLICEWAQLKALDVLY | inactive |
| EASNCFAIRHFENKFAVETLICEWEKGVTPAMGL | inactive |
| EASNCFAIRHFENKFAVETLICEWFRSGRIWP | inactive |
| EASNCFAIRHFENKFAVETLICEWLCLSMVYRRM | inactive |
| EASNCFAIRHFENKFAVETLICEWLRFRLRTWTR | inactive |
| EASNCFAIRHFENKFAVETLICEWLRNCTARMAT | inactive |
| EASNCFAIRHFENKFAVETLICEWRVSLRVSDWG | 0.00985 |
| EASNCFAIRHFENKFAVETLICEWSYMSM | inactive |
| EASNCFAIRHFENKFAVETLICEWTEDYCRWVE | -0.0385 |
| EASNCFAIRHFENKFAVETLICEWTWQFDMNVVV | inactive |
| EASNCFAIRHFENKFAVETLICEWWNEVQRERRC | inactive |
| EASNCFAIRHFENKFAVETLICEWWQVDEEVQRE | inactive |
| EASNCFAIRHFENKFAVETLICEY | inactive |
| EASNCFAIRHFENKFAVETLICEYAQNFMPWSRV | inactive |
| EASNCFAIRHFENKFAVETLICEYMGAECEFTLP | -0.309 |
| EASNCFAIRHFENKFAVETLICEYVVNGKVRAAR | 3.06 |
| EASNCFAIRHFENKFAVETLICFACNPFVGNQWR | 9.3 |
| EASNCFAIRHFENKFAVETLICFACVTLSSAWLL | inactive |

| Sequence | amyloid nucleation score |
| --- | --- |
| EASNCFAIRHFENKFAVETLICFADALL | inactive |
| EASNCFAIRHFENKFAVETLICFAFSRRQWMGWA | inactive |
| EASNCFAIRHFENKFAVETLICFAGA | inactive |
| EASNCFAIRHFENKFAVETLICFAHRYFLHSFVR | inactive |
| EASNCFAIRHFENKFAVETLICFALSVRGCLRQL | inactive |
| EASNCFAIRHFENKFAVETLICFAM | 5.85 |
| EASNCFAIRHFENKFAVETLICFAMLCWYWPSPS | -0.392 |
| EASNCFAIRHFENKFAVETLICFAMLMVKETAWV | inactive |
| EASNCFAIRHFENKFAVETLICFARASGEVSGGV | 3.76 |
| EASNCFAIRHFENKFAVETLICFARIGMSIVTKH | inactive |
| EASNCFAIRHFENKFAVETLICFASR | 6.84 |
| EASNCFAIRHFENKFAVETLICFATHSQ | 5.71 |
| EASNCFAIRHFENKFAVETLICFAVFLLTFVPIR | 4.76 |
| EASNCFAIRHFENKFAVETLICFAWCQRRVQPMG | inactive |
| EASNCFAIRHFENKFAVETLICFAYSNKSDVEGN | 5.48 |
| EASNCFAIRHFENKFAVETLICFCCNGSVSSATH | 9.35 |
| EASNCFAIRHFENKFAVETLICFCCQSNFRYPSF | 6.38 |
| EASNCFAIRHFENKFAVETLICFCCVRGDRVFTW | 8.33 |
| EASNCFAIRHFENKFAVETLICFCDEGRMKPHAG | 6.95 |
| EASNCFAIRHFENKFAVETLICFCH | 2.19 |
| EASNCFAIRHFENKFAVETLICFCLHVSGCRSMA | inactive |
| EASNCFAIRHFENKFAVETLICFCLIMLVSRCDG | inactive |
| EASNCFAIRHFENKFAVETLICFCLQSV | 6.72 |
| EASNCFAIRHFENKFAVETLICFCLRTG | 6.73 |

Same assay, conditions: random library (experiment): 2

| Sequence | amyloid nucleation score |
| --- | --- |
| EASNCFAIRHFENKFAVETLICEVRYSWYLLLFC | inactive |
| EASNCFAIRHFENKFAVETLICEVVICEHTFCGR | 3.68 |
| EASNCFAIRHFENKFAVETLICEVWVSHL | inactive |
| EASNCFAIRHFENKFAVETLICEWSVL | 0.598 |
| EASNCFAIRHFENKFAVETLICEYCGGQRFCQVG | inactive |
| EASNCFAIRHFENKFAVETLICEYERR | inactive |
| EASNCFAIRHFENKFAVETLICEYIWRRHNCLVI | inactive |
| EASNCFAIRHFENKFAVETLICEYNLY | inactive |
| EASNCFAIRHFENKFAVETLICEYRIKFSVSWHF | inactive |
| EASNCFAIRHFENKFAVETLICEYRIMSIWTSTW | inactive |
| EASNCFAIRHFENKFAVETLICEYRQNWLVQNTS | inactive |
| EASNCFAIRHFENKFAVETLICEYTNNSVNTVIP | inactive |
| EASNCFAIRHFENKFAVETLICFA | inactive |
| EASNCFAIRHFENKFAVETLICFAAKNRNYNTAC | 0.396 |
| EASNCFAIRHFENKFAVETLICFADNLIA | 4.09 |
| EASNCFAIRHFENKFAVETLICFADSGKMINEYT | -0.239 |
| EASNCFAIRHFENKFAVETLICFAFL | 8.28 |
| EASNCFAIRHFENKFAVETLICFAFVYHFWGFYS | -0.278 |
| EASNCFAIRHFENKFAVETLICFAGSFNTLVHGD | 6.94 |

| Sequence | amyloid nucleation score |
| --- | --- |
| EASNCFAIRHFENKFAVETLICFAIPQVYYIGGA | inactive |
| EASNCFAIRHFENKFAVETLICFAIVICIHKMSA | 4.55 |
| EASNCFAIRHFENKFAVETLICFAN | inactive |
| EASNCFAIRHFENKFAVETLICFASGFMFRLTTD | inactive |
| EASNCFAIRHFENKFAVETLICFASHFVE | 4.4 |
| EASNCFAIRHFENKFAVETLICFAVSAHMRDCAS | 0.505 |
| EASNCFAIRHFENKFAVETLICFAVWICYAHAYS | inactive |
| EASNCFAIRHFENKFAVETLICFAYPSVQ | 5.72 |
| EASNCFAIRHFENKFAVETLICFAYYLAMGVYKS | inactive |
| EASNCFAIRHFENKFAVETLICFC | 6.71 |
| EASNCFAIRHFENKFAVETLICFCG | 7.5 |
| EASNCFAIRHFENKFAVETLICFCGDRHGFEQAG | 7.89 |
| EASNCFAIRHFENKFAVETLICFCGRFSY | 0.498 |
| EASNCFAIRHFENKFAVETLICFCHGWLDVVSYR | inactive |
| EASNCFAIRHFENKFAVETLICFCHTQFFSYGCC | 1.28 |
| EASNCFAIRHFENKFAVETLICFCISVR | 5.02 |
| EASNCFAIRHFENKFAVETLICFCITLSLDLNYE | inactive |
| EASNCFAIRHFENKFAVETLICFCLGLMLDMCPL | inactive |

Same assay, conditions: random library (experiment): 3

| Sequence | amyloid nucleation score |
| --- | --- |
| EASNCFAIRHFENKFAVETLICEVQYSDVDSCRT | 4.76 |
| EASNCFAIRHFENKFAVETLICEVRCSLRWRLWG | 4.32 |
| EASNCFAIRHFENKFAVETLICEVRRFRSGGHWA | 5.88 |
| EASNCFAIRHFENKFAVETLICEVRVQAGNSHFD | 1.85 |
| EASNCFAIRHFENKFAVETLICEVSAVWESRGQS | 1.56 |
| EASNCFAIRHFENKFAVETLICEVSQRLRLGWEV | 4.84 |
| EASNCFAIRHFENKFAVETLICEVSVASSWDQWA | inactive |
| EASNCFAIRHFENKFAVETLICEVTFRPEKWFTR | 3.51 |
| EASNCFAIRHFENKFAVETLICEWD | inactive |
| EASNCFAIRHFENKFAVETLICEWNFVYYCHF | inactive |
| EASNCFAIRHFENKFAVETLICEWQETASVRNGP | 0 |
| EASNCFAIRHFENKFAVETLICEWVESGRLFREL | inactive |
| EASNCFAIRHFENKFAVETLICEWYRYHR | inactive |
| EASNCFAIRHFENKFAVETLICEYLVYSYMLCTK | inactive |
| EASNCFAIRHFENKFAVETLICEYRVAIRVRANL | inactive |
| EASNCFAIRHFENKFAVETLICEYRWQWVENV | inactive |
| EASNCFAIRHFENKFAVETLICEYVQRVENQFSG | 5.36 |
| EASNCFAIRHFENKFAVETLICFAALYKSSGC | inactive |

| Sequence | amyloid nucleation score |
| --- | --- |
| EASNCFAIRHFENKFAVETLICFAAYEWGFGRSG | 3.14 |
| EASNCFAIRHFENKFAVETLICFADVVISCFDTA | 6.43 |
| EASNCFAIRHFENKFAVETLICFAHCFGLYVYSG | inactive |
| EASNCFAIRHFENKFAVETLICFAISSLVTWMCG | inactive |
| EASNCFAIRHFENKFAVETLICFALKHRMHLNTC | inactive |
| EASNCFAIRHFENKFAVETLICFAPRVSRGRRTP | inactive |
| EASNCFAIRHFENKFAVETLICFAPTVGARTERC | inactive |
| EASNCFAIRHFENKFAVETLICFARMIKS | inactive |
| EASNCFAIRHFENKFAVETLICFARNITKSRFAR | inactive |
| EASNCFAIRHFENKFAVETLICFATDGEFYKSSL | 2.11 |
| EASNCFAIRHFENKFAVETLICFATRFGVGSI | 3.86 |
| EASNCFAIRHFENKFAVETLICFCAIELMTPCGR | inactive |
| EASNCFAIRHFENKFAVETLICFCAR | 4.72 |
| EASNCFAIRHFENKFAVETLICFCDLHELTKQNS | 8.09 |
| EASNCFAIRHFENKFAVETLICFCENQLSDTVVL | 4.19 |
| EASNCFAIRHFENKFAVETLICFCGGDGVELAWV | 3.9 |
| EASNCFAIRHFENKFAVETLICFCL | 8.27 |
